Results reported in the supplement of paper PMC3334620.
The full ranking holds about 33,000 sequences; the median of “E-score (-0.5 to 0.5)” is about -0.017, and the highest 2% start at about 0.3. The list shows a part of the results.

target: T1, Sut1 (UniProt P53032); experiment: PBM E-score (8-mer binding enrichment) (E-score (-0.5 to 0.5)); higher = stronger / more preferred TF binding; most listed sequences are background and not binding sites; settings: protein concentration: 200 nM; construct: GST-full length
T1 sequence: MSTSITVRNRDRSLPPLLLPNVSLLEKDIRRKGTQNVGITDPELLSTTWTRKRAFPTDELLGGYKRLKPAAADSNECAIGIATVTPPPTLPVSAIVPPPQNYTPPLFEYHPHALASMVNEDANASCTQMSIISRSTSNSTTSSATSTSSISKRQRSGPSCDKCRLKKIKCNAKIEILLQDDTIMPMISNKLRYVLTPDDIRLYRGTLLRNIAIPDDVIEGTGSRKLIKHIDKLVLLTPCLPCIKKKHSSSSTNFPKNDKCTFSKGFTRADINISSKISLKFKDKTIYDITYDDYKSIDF
Procedure, shortened: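 PURExpress in vitro transcription/translation supplied GST-tagged yeast transcription factors, either full-length or DNA-binding domain. Applied at about 100-200 nM to universal all-10-mer Agilent arrays double-stranded by primer extension, the bound protein was detected with fluorescent anti-GST. E-scores, modified Wilcoxon-Mann-Whitney statistics, were given by the Universal PBM Analysis Suite to ungapped eight-base words pooled with their reverse complements after masliner normalisation.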

Going from ATAGCCAT to GAGTGAGA, the “PBM E-score” value rises from -0.0463 to 0.197.

First: ATAGCTCG
Second: ACGACACA
The “PBM E-score” value of the first is lower: -0.135 for the first, -0.0399 for the second.

Compared with CTACCAGA, CGCAGCCA is lower in “PBM E-score” value: 0.0705 for the first, -0.117 for the second.

First: ATGCGTAC
Second: TCACAAGA
The “PBM E-score” value of the first is higher: 0.0945 for the first, -0.00052 for the second.

Compared with CGCCGAAC, GTTTGCGA is lower in “PBM E-score” value: 0.215 for the first, 0.106 for the second.

Going from ATAACCGA to CAAGGTGA, the “PBM E-score” value falls from 0.178 to -0.137.

First: ATATGTCA
Second: GCAGTGCC
The “PBM E-score” value of the first is higher: 0.0284 for the first, -0.197 for the second.

Going from CGGCAGAA to GGTCACGA, the “PBM E-score” value rises from -0.0911 to -0.0666.

First: TGGAACCA
Second: CAGCGAGG
The “PBM E-score” value of the first is higher: -0.0524 for the first, -0.225 for the second.

Going from AAACGATT to GCATCTGA, the “PBM E-score” value falls from 0.231 to -0.204.

Compared with CAAGTAAG, ACGAACCA is higher in “PBM E-score” value: 0.0132 for the first, 0.222 for the second.

Compared with CCATTTGC, AGATTCCT is lower in “PBM E-score” value: 0.0098 for the first, -0.0965 for the second.

Compared with GCCTATAC, CAAAGCTC is higher in “PBM E-score” value: -0.171 for the first, -0.148 for the second.

First: GAGTAGAC
Second: CCAAACAG
The “PBM E-score” value of the first is higher: 0.0758 for the first, -0.205 for the second.

First: AGTGACAT
Second: GCCAGGAA
The “PBM E-score” value of the first is higher: 0.089 for the first, -0.164 for the second.

Going from GAGCGCTA to AACGTAGG, the “PBM E-score” value falls from -0.0699 to -0.171.

First: AACACGTA
Second: GACCGTCC
The “PBM E-score” value of the first is higher: 0.191 for the first, -0.0565 for the second.

Compared with CCATAGAC, GTTATCCA is higher in “PBM E-score” value: -0.155 for the first, 0.154 for the second.

Going from AATTCATA to CCAGTTAA, the “PBM E-score” value falls from 0.209 to 0.16.

Going from ACTCTGCC to CTGTTTAC, the “PBM E-score” value rises from -0.0777 to 0.126.

Going from CTCCTAAC to ACCGAGAA, the “PBM E-score” value rises from -0.174 to 0.229.

Compared with ACGCACTG, AAAAGACA is higher in “PBM E-score” value: -0.139 for the first, 0.157 for the second.

Going from CCACGCGG to CCCATTAA, the “PBM E-score” value rises from -0.0774 to -0.0707.

Compared with GAGTGGGA, CATGGAAA is higher in “PBM E-score” value: 0.0811 for the first, 0.251 for the second.

Compared with ACAGCAGG, AATCATCA is higher in “PBM E-score” value: -0.0678 for the first, 0.0376 for the second.

Compared with ATGACGGA, GAAGCATA is lower in “PBM E-score” value: 0.252 for the first, 0.0407 for the second.

Compared with GCTATTTA, GAGACGGC is lower in “PBM E-score” value: 0.159 for the first, -0.113 for the second.

Compared with CGGCACCA, CTATGTAC is lower in “PBM E-score” value: -0.0188 for the first, -0.0441 for the second.

First: AACTAATC
Second: GGATCAGA
The “PBM E-score” value of the first is higher: 0.119 for the first, -0.0639 for the second.

Compared with AATACCAA, GATTAAGA is lower in “PBM E-score” value: 0.214 for the first, 0.199 for the second.

Compared with AATATATC, AGGAAAAT is lower in “PBM E-score” value: 0.322 for the first, 0.151 for the second.

Compared with ATTACCAC, AACTGACA is lower in “PBM E-score” value: 0.0799 for the first, -0.137 for the second.

First: GAAGCTTA
Second: TCTTTTCA
The “PBM E-score” value of the first is lower: 0.0895 for the first, 0.178 for the second.

Going from GAACGGTC to AAGCCATA, the “PBM E-score” value rises from -0.228 to -0.114.

Going from ACGCTCCC to GGCTTTAC, the “PBM E-score” value rises from -0.22 to 0.113.

Compared with ACCGGAGT, GACCACTA is lower in “PBM E-score” value: 0.492 for the first, 0.0285 for the second.

Going from AATAGACA to AAATTGCG, the “PBM E-score” value rises from 0.0476 to 0.115.

Going from CTCTATGA to AGGAGAAA, the “PBM E-score” value rises from 0.0486 to 0.0526.

First: GTGTACAA
Second: CTCTTAGC
The “PBM E-score” value of the first is higher: 0.0787 for the first, -0.0725 for the second.

Compared with ATGAACTC, ATCAGTCA is higher in “PBM E-score” value: -0.00357 for the first, 0.0575 for the second.

Going from GAATAACA to ATCTAGAT, the “PBM E-score” value falls from 0.261 to 0.043.

Going from ACAAGTCC to AGGTTTGG, the “PBM E-score” value falls from 0.374 to -0.0802.

First: CAGTGCCA
Second: GAAGGGTC
The “PBM E-score” value of the first is lower: -0.284 for the first, -0.121 for the second.

Going from GCCCTTAA to CGACATCA, the “PBM E-score” value rises from -0.153 to 0.143.

First: AGCGGCGC
Second: AGATAGTA
The “PBM E-score” value of the first is lower: -0.00117 for the first, 0.225 for the second.

Compared with GGGAGCCA, GTGATCCA is higher in “PBM E-score” value: -0.238 for the first, -0.0945 for the second.

Going from GAACTACA to CACTCGTC, the “PBM E-score” value falls from 0.0512 to -0.166.

First: AGACATAT
Second: AAAGCCGG
The “PBM E-score” value of the first is higher: 0.169 for the first, 0.0415 for the second.

First: CATCACAA
Second: TATCGCCA
The “PBM E-score” value of the first is higher: 0.0759 for the first, 0.0664 for the second.

Compared with CCCGACGG, ATAAGTTC is higher in “PBM E-score” value: -0.0115 for the first, 0.261 for the second.

Compared with ACAAGTCT, TATCGACA is higher in “PBM E-score” value: -0.161 for the first, -0.063 for the second.

Going from CTAAGGGA to TACGTGAA, the “PBM E-score” value rises from -0.102 to -0.0149.

Going from AGCGGTCC to AATGCCTG, the “PBM E-score” value falls from 0.0314 to -0.076.

Compared with CTACTCAG, GCGGCCTA is lower in “PBM E-score” value: -0.195 for the first, -0.238 for the second.

Compared with CATGCCAC, AACAAGAG is higher in “PBM E-score” value: -0.128 for the first, 0.0573 for the second.
